Data from the supplement of paper PMC4604168 (melanoma cell lines).
This is one part of the list. Most values come without repeats; read them as rough.

These molecules were tested on A2058 (assay: cell count relative to DMSO control; melanoma cells; higher = more viable cells). Details: library dose: standard library concentration; 72 h.
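Further: cells treated in 1,536-well plates, then fixed and DAPI-stained, with nuclei counted from automated high-throughput microscope images.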

Structure (SMILES) | cell count
CCN(CC)CCNC(=O)c1c(C)[nH]c(/C=C2\C(=O)Nc3ccc(F)cc32)c1C [sunitinib] + Nc1nc(F)nc2c1ncn2[C@@H]1O[C@H](CO)[C@@H](O)[C@@H]1O [fludarabine] (first compound 2 µM, partner dose 1 µM) | 89.6%
C[C@]1(O)C[C@@H](c2nc(-c3ccc4ccc(-c5ccccc5)nc4c3)c3c(N)nccn32)C1 + CN1CCN(c2ccc3nc(-c4c(N)c5c(F)cccc5[nH]c4=O)[nH]c3c2)CC1 [Dovitinib] (first compound 2 µM, partner dose 0.5 µM) | 30.7%
COc1cc([C@@H]2c3cc4c(cc3[C@@H](O[C@@H]3O[C@@H]5CO[C@@H](C)O[C@H]5[C@H](O)[C@H]3O)[C@H]3COC(=O)[C@H]23)OCO4)cc(OC)c1O [etoposide] + CCCCCCCCc1ccc(CCC(N)(CO)CO)cc1 [fingolimod] (first compound 0.1 µM, partner dose 10 µM) | 4.81%
Cn1cnc2c(F)c(Nc3ccc(Br)cc3Cl)c(C(=O)NOCCO)cc21 [selumetinib] + Oc1nc(-c2ccc(C(F)(F)F)cc2)nc2c1CSCC2 [XAV939] (first compound 0.075 µM, partner dose 10 µM) | 68.8%
C[C@]1(O)C[C@@H](c2nc(-c3ccc4ccc(-c5ccccc5)nc4c3)c3c(N)nccn32)C1 + NC1(c2ccc(-c3nc4ccn5c(=O)[nH]nc5c4cc3-c3ccccc3)cc2)CCC1 [MK2206] (first compound 2 µM, partner dose 2 µM) | 71.7%
CCN(CC)CCNC(=O)c1c(C)[nH]c(/C=C2\C(=O)Nc3ccc(F)cc32)c1C [sunitinib] + C[C@@H](Oc1cc(-c2cnn(C3CCNCC3)c2)cnc1N)c1c(Cl)ccc(F)c1Cl [Crizotinib] (first compound 2 µM, partner dose 1 µM) | 46.3%
CCN(CC)CCNC(=O)c1c(C)[nH]c(/C=C2\C(=O)Nc3ccc(F)cc32)c1C [sunitinib] + C=CCn1c(=O)c2cnc(Nc3ccc(N4CCN(C)CC4)cc3)nc2n1-c1cccc(C(C)(C)O)n1 [MK1775] (first compound 2 µM, partner dose 0.1 µM) | 61.5%
CCN(CC)CCNC(=O)c1c(C)[nH]c(/C=C2\C(=O)Nc3ccc(F)cc32)c1C [sunitinib] + CO[C@@H]1[C@H](N(C)C(=O)c2ccccc2)C[C@H]2O[C@]1(C)n1c3ccccc3c3c4c(c5c6ccccc6n2c5c31)C(=O)NC4 [Midostaurin] (first compound 2 µM, partner dose 0.4 µM) | 47.5%
COc1cc([C@@H]2c3cc4c(cc3[C@@H](O[C@@H]3O[C@@H]5CO[C@@H](C)O[C@H]5[C@H](O)[C@H]3O)[C@H]3COC(=O)[C@H]23)OCO4)cc(OC)c1O [etoposide] + CC(C)C[C@H](NC(=O)[C@H](Cc1ccccc1)NC(=O)c1cnccn1)B(O)O [Bortezomib] (first compound 0.1 µM, partner dose 0.005 µM) | 12.4%
C[C@]1(O)C[C@@H](c2nc(-c3ccc4ccc(-c5ccccc5)nc4c3)c3c(N)nccn32)C1 + CS(=O)(=O)c1ccc(C(=O)Nc2ccc(Cl)c(-c3ccccn3)c2)c(Cl)c1 [vismodegib] (first compound 2 µM, partner dose 5 µM) | 128%
Cn1cnc2c(F)c(Nc3ccc(Br)cc3Cl)c(C(=O)NOCCO)cc21 [selumetinib] + Nc1cccc2c1CN(C1CCC(=O)NC1=O)C2=O [lenalidomide] (first compound 0.075 µM, partner dose 5 µM) | 100%
CCN(CC)CCNC(=O)c1c(C)[nH]c(/C=C2\C(=O)Nc3ccc(F)cc32)c1C [sunitinib] + CCCCCCCCc1ccc(CCC(N)(CO)CO)cc1 [fingolimod] (first compound 2 µM, partner dose 10 µM) | 5.05%
COc1cc([C@@H]2c3cc4c(cc3[C@@H](O[C@@H]3O[C@@H]5CO[C@@H](C)O[C@H]5[C@H](O)[C@H]3O)[C@H]3COC(=O)[C@H]23)OCO4)cc(OC)c1O [etoposide] + Cn1cncc1[C@@](N)(c1ccc(Cl)cc1)c1ccc2c(c1)c(-c1cccc(Cl)c1)cc(=O)n2C [tipifarnib] (first compound 0.1 µM, partner dose 0.05 µM) | 76.1%
CCN(CC)CCNC(=O)c1c(C)[nH]c(/C=C2\C(=O)Nc3ccc(F)cc32)c1C [sunitinib] + O=C(O)c1ccc(-c2c[nH]c3ncc(-c4ccccc4)cc23)cc1C1CCCC1 [GSK650394] (first compound 2 µM, partner dose 0.8 µM) | 85.1%
COc1cc([C@@H]2c3cc4c(cc3[C@@H](O[C@@H]3O[C@@H]5CO[C@@H](C)O[C@H]5[C@H](O)[C@H]3O)[C@H]3COC(=O)[C@H]23)OCO4)cc(OC)c1O [etoposide] + Cc1cc(N2CCOCC2)cc2[nH]c(-c3c(NC[C@@H](O)c4cccc(Cl)c4)cc[nH]c3=O)nc12 [BMS536924] (first compound 0.1 µM, partner dose 1 µM) | 71.2%
COc1cc([C@@H]2c3cc4c(cc3[C@@H](O[C@@H]3O[C@@H]5CO[C@@H](C)O[C@H]5[C@H](O)[C@H]3O)[C@H]3COC(=O)[C@H]23)OCO4)cc(OC)c1O [etoposide] + CN(NC(=O)CC(=O)NN(C)C(=S)c1ccccc1)C(=S)c1ccccc1 [STA4783] (first compound 0.1 µM, partner dose 0.03 µM) | 6.12%
CCN(CC)CCNC(=O)c1c(C)[nH]c(/C=C2\C(=O)Nc3ccc(F)cc32)c1C [sunitinib] + CCCS(=O)(=O)Nc1ccc(F)c(C(=O)c2c[nH]c3ncc(Cl)cc23)c1F [PLX4720] (first compound 2 µM, partner dose 0.4 µM) | 78.9%
Cn1cnc2c(F)c(Nc3ccc(Br)cc3Cl)c(C(=O)NOCCO)cc21 [selumetinib] + OCc1c[nH]c2ccccc12 [Indole-3-carbinol] (first compound 0.075 µM, partner dose 4 µM) | 103%
CCN(CC)CCNC(=O)c1c(C)[nH]c(/C=C2\C(=O)Nc3ccc(F)cc32)c1C [sunitinib] + CC(=O)c1c(C)c2cnc(Nc3ccc(N4CCNCC4)cn3)nc2n(C2CCCC2)c1=O [palbociclib] (first compound 2 µM, partner dose 0.2 µM) | 84.3%
COc1cc([C@@H]2c3cc4c(cc3[C@@H](O[C@@H]3O[C@@H]5CO[C@@H](C)O[C@H]5[C@H](O)[C@H]3O)[C@H]3COC(=O)[C@H]23)OCO4)cc(OC)c1O [etoposide] + Cn1c(Nc2ccc(C(F)(F)F)cc2)nc2cc(Oc3ccnc(-c4ncc(C(F)(F)F)[nH]4)c3)ccc21 [CHIR265] (first compound 0.1 µM, partner dose 0.4 µM) | 59.8%
C[C@]1(O)C[C@@H](c2nc(-c3ccc4ccc(-c5ccccc5)nc4c3)c3c(N)nccn32)C1 + CS(=O)(=O)CCNCc1ccc(-c2ccc3ncnc(Nc4ccc(OCc5cccc(F)c5)c(Cl)c4)c3c2)o1 [lapatinib] (first compound 2 µM, partner dose 4 µM) | 79%
C[C@]1(O)C[C@@H](c2nc(-c3ccc4ccc(-c5ccccc5)nc4c3)c3c(N)nccn32)C1 + Cc1ccc(NC(=O)c2cccc(N(C)C)c2)cc1NC(=O)c1ccc(O)cc1 [ZM336372] (first compound 2 µM, partner dose 10 µM) | 112%
CCN(CC)CCNC(=O)c1c(C)[nH]c(/C=C2\C(=O)Nc3ccc(F)cc32)c1C [sunitinib] + C=C(c1ccc(C(=O)O)cc1)c1cc2c(cc1C)C(C)(C)CCC2(C)C [Bexarotene] (first compound 2 µM, partner dose 10 µM) | 79.1%
COc1cc([C@@H]2c3cc4c(cc3[C@@H](O[C@@H]3O[C@@H]5CO[C@@H](C)O[C@H]5[C@H](O)[C@H]3O)[C@H]3COC(=O)[C@H]23)OCO4)cc(OC)c1O [etoposide] + NC(=O)c1ccc(N(C(N)=O)c2c(F)cccc2F)nc1-c1ccc(F)cc1F [VX702] (first compound 0.1 µM, partner dose 2 µM) | 74.6%
Cn1cnc2c(F)c(Nc3ccc(Br)cc3Cl)c(C(=O)NOCCO)cc21 [selumetinib] + C#Cc1cccc(Nc2ncnc3cc(OCCOC)c(OCCOC)cc23)c1 [erlotinib] (first compound 0.075 µM, partner dose 4 µM) | 73.6%
